Data taken from PubChem BioAssay AID493208 (National Center for Advancing Translational Sciences (NCATS), 2011).
Hit rate of the full screen: of about 44,000 compounds, about 340 (0.77%) were called active. About 5% were inconclusive and are not listed. The call rests on the fitted dose curve; in most records, active means well fitted inhibition curve with a large enough effect; inconclusive means small, poorly fitted or top-dose-only effect; inactive means flat fitted curve, though single readings scatter. Some of the results follow.

Assay: Acumen qHTS Assay for Inhibitors of the mTORC1 Signaling Pathway in MEF (Tsc2-/-, p53-/-) Cells: Sytravon;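 further: plate controls were DMSO for no effect and rapamycin for full effect; nearly all actives have a fitted effect of over 50% in size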
Settings: phospho-rpS6 immunofluorescence/PI, 24 h; series mostly up to 38.3 µM; activity change, negative = inhibition: at the top concentration
How it was run: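 Compounds act on Tsc2-/-, p53-/- fibroblasts carrying an empty vector for 24 h before fixation and dual staining for phospho-S6 and DNA (propidium iodide). Values are percentages of cells above a rapamycin-defined pS6/PI threshold.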

SMILES | activity change, negative = inhibition
CCC(=O)N1CCc2cc(S(=O)(=O)NC(C(=O)Nc3ccc(C(C)=O)cc3)C(C)C)ccc21 (stereo not given) | inactive: 0.205%
Cn1c(=O)oc2cc(S(=O)(=O)Nc3ccc(C(=O)O)cc3)ccc21 | inactive: -1.34%
CCC(=O)N1CCc2cc(Br)cc(S(=O)(=O)N3CCCC(C(=O)N(C)c4ccc(Br)cc4)C3)c21 (stereo not given) | inactive: -11.3%
COc1ccccc1CNC(=O)c1ccc(-c2nc(CN3CCc4ccccc43)c(C)o2)cc1 | inactive: -26.5%
Cc1ccc(OCC(=O)Nc2ccc3nc(SCC(=O)N4CCc5ccccc54)sc3c2)cc1 | inactive: -0.22%
COc1ccc(NC(=O)c2cccn2-c2nnc(N3CCCCC3)s2)cc1 | inactive: -2.7%
CCOC(=O)C1CCCN(c2nc3c(S(=O)(=O)c4ccc(C)c(C)c4)nnn3c3ccc(Cl)cc23)C1 (stereo not given) | inactive: -4.39%
CCn1c(=O)c2sccc2n2c(CCC(=O)Nc3cc(C)cc(C)c3)nnc12 | inactive: 6.44%
Cc1ccc(Cl)cc1N1CCN(c2ncnc3onc(C)c23)CC1 | inactive: 3.18%
Clc1ccc(N2CCN(c3ncnc4c3nc3n4CCCC3)CC2)cc1 | inactive: -5.85%
COc1ccc(-c2nc(CS(=O)CC(=O)NCc3ccccc3OC)c(C)o2)cc1 (stereo not given) | inactive: -7.73%
COc1cccc(N2CCN(C(=O)C3CCN(S(=O)(=O)c4ccc5c(c4)oc(=O)n5C)CC3)CC2)c1 | inactive: -1.18%
COc1ccc2c(c1)CC(C(=O)NCCCN1CCN(c3ccc(F)cc3)CC1)CO2 (stereo not given) | inactive: 1.06%
COc1cccc(C(=O)Nc2cc3c(cc2C(=O)c2ccc(C)cc2)OCCO3)c1 | inactive: 2.59%
CCOc1ccc(CCNC(=O)CN2C(=O)C(CC)Oc3ccccc32)cc1OCC (stereo not given) | inactive: 10.2%
COc1ccc(C(=O)NCc2nnc(SCC(=O)Nc3ccccc3)n2-c2ccc(F)cc2)cc1 | inactive: -6.64%
COc1ccc(OC)c(NC(=O)CSc2ccnc(=O)[nH]2)c1 | inactive: -3.02%
Cn1c(=O)oc2cc(S(=O)(=O)CCC(=O)N3CCN(c4ccccc4)CC3)ccc21 | inactive: 4.11%
COc1ccccc1-c1cc(C(=O)Nc2sc3c(c2C#N)CCCC3)no1 | inactive: 7.75%
COc1ccccc1N1CCN(S(=O)(=O)c2c(C)sc3ncn(CC(=O)Nc4cccc(Cl)c4)c(=O)c23)CC1 | inactive: -9.58%
COC(=O)c1c(-c2ccc(Cl)cc2)noc1N1CCN(c2ccc(OC)cc2)CC1 | inactive: 1.52%
Cc1ccc2c(c1)NC(=O)C(CC(=O)Nc1cc(Cl)ccc1C)O2 (stereo not given) | inactive: -5.13%
COc1ccc(C2CC(c3c(O)n(C4CCCCC4)c(=O)[nH]c3=O)=Nc3ccccc3S2)cc1 (stereo not given) | inactive: -0.559%
CCc1nn2c(=O)cc(COC(=O)CNC(=O)c3ccccc3)nc2s1 | inactive: -5.12%

SMILES | activity change, negative = inhibition
O=C(Nc1ccc(Br)cc1)C1CCN(c2cnccn2)CC1 | inactive: 1.25%
COc1cc(OC)c(Nc2cc(C)nc3ncnn23)cc1Cl | inactive: -19.8%
CCOc1ccc(C(=O)Nc2cccc(NC(=O)c3ccco3)c2)cc1Cl | inactive: 7.53%
COc1ccccc1CNC(=O)c1ccc(N2CCCC2)c(NC(=O)NCc2ccccc2)c1 | inactive: 17.9%
CCN(CC)S(=O)(=O)c1nnc(NC(=O)COc2ccccc2Cl)s1 | inactive: 1.76%
O=C(COc1ccccc1F)OCc1cc(=O)n2nc(-c3cccs3)sc2n1 | inactive: 0%
NC(=O)c1cc(S(=O)(=O)N2CCN(c3ccc(F)cc3)CC2)cs1 | inactive: -9.2%
CCC(CC)c1nn2c(=O)cc(COc3ccc(NC(=O)c4ccccc4Cl)cc3)nc2s1 | inactive: 2.9%
Cc1ccccc1CNC(=O)C1CCN(c2nn3cc(-c4ccc(F)cc4)nc3s2)CC1 | inactive: -0.404%
CC1CCCCN1CCCNC(=O)Cn1ncc2c([nH]c3ccccc32)c1=O (stereo not given) | inactive: -1.23%
Cc1cccc(CNS(=O)(=O)c2ccc3[nH]c(=O)ccc3c2)c1 | inactive: -2.99%
COc1ccc(Cn2c(=O)[nH]c3cc(C(=O)N4CCN(c5cc(C)ccc5C)CC4)ccc3c2=O)cc1 | inactive: 2.76%
COc1ccc(-c2cnnn2-c2ccc(NC(=O)c3c(F)cccc3F)cc2)cc1 | inactive: -1.14%
COc1ccc(-c2cnnn2-c2ccc(NC(=O)c3ccc(S(=O)(=O)N(C)C)cc3)cc2)cc1 | inactive: 8.12%
CC(=O)c1cc(-c2ccccc2)n(CC(=O)NC2CCCCC2)c1C | inactive: -8.51%
CCOC(=O)c1cnc2cc(-c3ccc(Cl)cc3)nn2c1-c1ccccc1 | inactive: -2.11%
CC(C)Cn1c(=O)c2ccccc2n2c(CCC(=O)Nc3cccc(Cl)c3)nnc12 | inactive: -5.25%
CCCOc1ccc(-c2nn(-c3ccccc3)cc2C2NC(=O)NC(C)=C2C(=O)OC(C)C)cc1 (stereo not given) | inactive: -0.715%
O=C1Nc2c(c(=O)[nH]c(=O)n2-c2ccccc2)C1(NS(=O)(=O)c1ccc(Cl)cc1)C(F)(F)F (stereo not given) | inactive: 3.35%
CCOc1ccccc1/C=C/c1onc(C)c1S(=O)(=O)N1CCC(C(=O)N(CC)CC)CC1 | inactive: -5.19%
Cc1ccc(NC(=O)Cn2c(=O)n(CCCCCC(=O)NCc3ccc(F)cc3)c(=O)c3sccc32)cc1C | inactive: -2.53%
O=C(Cc1ccc(F)cc1)NC1CC(=O)N(c2ccccc2)C1 (stereo not given) | inactive: 0.0373%
CCOc1ccc(Cn2nnc3c(=O)[nH]c(C4CCN(C(=O)c5ccccc5)CC4)nc32)cc1 | inactive: 1.1%
COc1cc(-c2nnc(SCC(=O)NCc3ccccc3Cl)o2)cc(OC)c1OC | inactive: 2.89%

SMILES | activity change, negative = inhibition
Cc1cc(C)cc(-n2nnc(-c3nc(-c4ccc5c(c4)OCO5)no3)c2C)c1 | inactive: 9.45%
CC(=O)c1ccc(NC(=O)c2cn3c4c(ccc(Cl)c4c2=O)OC(C)C3)cc1 (stereo not given) | inactive: 1.28%
COc1cc2c(=O)n(CCC(=O)NCC3CCCO3)c(=O)n(CC(=O)Nc3ccc(C)cc3)c2cc1OC (stereo not given) | inactive: 14.7%
Cc1ccc(S(=O)(=O)C(CNC(=O)C(=O)NCc2ccc(Cl)cc2)c2cccs2)cc1 (stereo not given) | inactive: -0.0524%
Cc1ccc(C(=O)NCCn2c(C)cc3ccccc32)cc1C | inactive: -6.53%
CC(Oc1ccc(F)cc1)C(=O)NCC1(N(C)C)CCCCC1 (stereo not given) | inactive: -0.618%
Cc1c(NC(=O)c2ccc(OC(C)C)cc2)cccc1-c1nc2ncccc2o1 | inactive: 6.32%
Cc1ccc(S(=O)(=O)c2cn(CC(=O)Nc3ccc(C)c(Cl)c3)c3ccc(C)cc3c2=O)cc1 | inactive: -17%
COc1cccc(C(=O)NCCSc2c(-c3ccc(F)cc3)[nH]c3ccccc23)c1OC | inactive: -20.4%
Cc1ccc(CNC(=O)C2CCCN(S(=O)(=O)c3ccc4c(c3)oc(=O)n4C)C2)cc1 (stereo not given) | inactive: -6.13%
O=C1CN(C(=O)c2ccc(S(=O)(=O)N3CCCCC3)cc2)C(c2ccc(F)cc2)c2cc(F)ccc2N1 (stereo not given) | inactive: -0.242%
CC(C)Oc1ccc(CNC(=O)CCCn2c(=O)c3cccn3c3ccccc32)cc1 | inactive: -0.644%
CCCS(=O)(=O)Nc1cc(-c2cn3cccc(C)c3n2)ccc1C | inactive: -0.483%
Cc1ccc(NCc2cccn2-c2nnc(N3CCC(C(=O)NC(C)C)CC3)s2)cc1 | inactive: -9.09%
COc1ccc(-c2cn3nc(N4CCC(C(=O)NCc5ccccc5F)CC4)sc3n2)cc1 | inactive: -10.4%
Cc1ccc(S(=O)(=O)N2CCCc3cc(NS(=O)(=O)c4ccc(F)c(C)c4)ccc32)cc1 | inactive: 0%
COc1ccc(-c2cc(C(F)(F)F)c(C#N)c(SCC(=O)Nc3ccc(F)cc3)n2)cc1 | inactive: 1.23%
COc1ccc(NC(=O)Cn2c(=O)oc3cc(S(=O)(=O)NC4CCCC4)ccc32)cc1OC | inactive: 0.349%
CCCNC(=O)c1ccc2c(c1)ncn2-c1ccc(C)cc1C | inactive: 6.83%
COc1ccc(CNc2ncnc3onc(C)c23)cc1 | inactive: -5.53%
CCOC(=O)c1c(NC(=O)CS(=O)(=O)c2ccc(C)cc2)sc2c1CCCCC2 | inactive: -6.09%
Cc1nc(-c2ccccc2)sc1-c1ccc(SCC(=O)NCc2ccc(F)cc2)nn1 | inactive: -0.348%
Cn1c(=O)c2c(SCC(=O)N3CCc4ccccc43)nc(-c3ccccc3Cl)nc2n(C)c1=O | inactive: -16.7%
Cc1ccc(C(C)C)c(OCC(=O)Nc2cccc(NC(=O)c3ccco3)c2)c1 | inactive: 0.706%

SMILES | activity change, negative = inhibition
CC1=Nc2cc(C(=O)NCCc3ccc(Cl)cc3)ccc2Sc2ccc(C)cc21 | inactive: -16%
CCC(CC)C(=O)NC1CC(=O)N(c2ccc3c(c2)OCCO3)C1 (stereo not given) | inactive: -2.5%
Cc1ccc(-c2nc3cccnc3s2)cc1NC(=O)C(C)C | inactive: 0%
Cc1ccc(-c2ccc(=O)n(Cc3cc(C)ccc3C)n2)cc1 | inactive: -1.58%
COC(=O)C(Cc1c[nH]c2ccccc12)NC(=O)COc1ccc(Cl)cc1Cl (stereo not given) | inactive: 3.99%
CCN(c1cc(C)cc(C)c1)S(=O)(=O)c1nnc(NC(=O)c2cccs2)s1 | inactive: 1.2%
CCOc1ccc(-n2c(CCC(=O)O)ccc2-c2ccc(Br)cc2)cc1 | inactive: -0.0581%
CCc1ccc(CNC(=O)CCSCc2ccccc2F)cc1 | inactive: 5.04%
Cc1cccc(NS(=O)(=O)c2ccc3[nH]c(=O)ccc3c2)c1C | inactive: 0%
COc1ccc(C(=O)c2cn(CC(=O)Nc3ccc4c(c3)OCCO4)c3ccc(OC)cc3c2=O)cc1 | inactive: 0.564%
COc1ccccc1OCCn1c(-c2ccc(Cl)cc2)nc2ccccc2c1=O | inactive: -8.3%
O=C(CSc1nc(-c2ccccc2)no1)N1CCN(c2ccccc2F)CC1 | inactive: 7.27%
COc1cccc(C2=CC(c3ccc(OC)c(OC)c3OC)n3ncnc3N2)c1 (stereo not given) | inactive: -1.65%
O=C(Cn1c(=O)nc(-c2ccccc2)c2ccccc21)Nc1ccc(Cl)c(C(F)(F)F)c1 | inactive: 24.4%
CCN(C(=O)Cc1nc(-c2ccc(OC)cc2)no1)c1cccc(Cl)c1 | inactive: -1.38%
CCC1CN(C(=O)N2CCC(C(=O)Nc3cc(C)ccc3C)CC2)c2ccccc2O1 (stereo not given) | inactive: -1.2%
Cc1cccc(-c2cc(NC(=O)C(C)(C)C)n(-c3ccccc3)n2)c1 | inactive: 1.39%
COc1ccc(C(CC(=O)Nc2cccc(C)c2C)N2Cc3ccccc3C2=O)cc1 (stereo not given) | inactive: -1.22%
COc1cc(C2c3c(oc4ccccc4c3=O)C(=O)N2c2nncs2)cc(OC)c1OC (stereo not given) | inactive: -2.19%
O=C(COc1ccc(F)cc1)Nc1ccccc1C(=O)OCc1cc(=O)n2nc(C3CC3)sc2n1 | inactive: 7.68%
CCOc1ccc(-c2cn3c(n2)sc2cc(C(=O)NCCCc4ccccc4)ccc23)cc1 | inactive: -14.6%
Cc1nc2nc(SCc3ccc(F)cc3Cl)nn2c(C)c1Cc1ccccc1 | inactive: 9.1%
O=C(CS(=O)(=O)c1cccc2nsnc12)NCc1ccc(Cl)cc1 | inactive: -6.62%
